In PubChem BioAssay AID686979 (National Center for Advancing Translational Sciences (NCATS), 2013):
The whole screen tested about 420,000 compounds, of which about 50,000 (12%) were called active. Inconclusive means that the source gave no clear call. Such entries were picked first, then a sample of the others. Calls follow the shape of the dose curve; as a rule, active = well fitted inhibition curve with a large enough effect; inconclusive = small, poorly fitted or top-dose-only effect; inactive = flat fitted curve, though single readings scatter. Potencies of inconclusive entries are left out as doubtful fits.

test: qHTS for Inhibitors of human tyrosyl-DNA phosphodiesterase 1 (TDP1): qHTS in cells in presence of CPT; conditions: chicken DT40 Tdp1-/-;hTDP1 cells + 20 nM CPT, ATP luminescence, 48 h; activity change, negative = growth inhibition: at 46.2 µM (top of the series) unless noted; also: nearly all actives have a fitted effect of over 55% in size
Outline: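 Chicken DT40 Tdp1-/- cells complemented with human TDP1, 400 cells/well, exposed to compounds plus 20 nM camptothecin for at least 48 h at 37 C; viability read as ATP content by CellTiter-Glo luminescence.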
% is scaled to controls: 0 for no effect and ±100 for the full control effect; potency is read from the fitted curve at half-maximal effect; tags tell the direction and shape of the fitted curve.

| SMILES | Potency | activity change, negative = growth inhibition |
| --- | --- | --- |
| CC1C(=O)N2CCCc3cc(NC(=O)C(=O)NCCc4ccc(F)cc4)cc1c32 (centres undefined) | inconclusive [inhibitor, single point] | – |
| Cc1ccc(CNC(=O)c2ccc3c(=O)[nH]c4c(C(=O)NCC5CCCO5)sc(=S)n4c3c2)cc1 (centres undefined) | – | inconclusive: -7.53% [inhibitor] |
| O=C(CC1Nc2ccccc2NC1=O)NCc1cccnc1 (centres undefined) | inconclusive [inhibitor, single point] | – |
| CCn1nc(C)c(/C=N/NC(=O)c2ccoc2C)c1C | inactive | – |
| Cc1nnc(SCc2ccc(Cl)cc2)c2cc3occc3n12 | inconclusive [inhibitor, single point] | – |
| CN1C(=O)[C@@H]2[C@H](C1=O)[C@@H]1C(=O)Nc3ccccc3C(=O)N1[C@@H]2c1cccc(Br)c1 | inconclusive [inhibitor, single point] | – |
| CCOC(=O)C/C(=N\Nc1ncnc2ccccc12)c1ccccc1 | inconclusive [inhibitor, single point] | – |
| O=C(CCN1C(=O)CSc2ccccc21)Nc1ccc(C(F)(F)F)cc1 | inconclusive [inhibitor, single point] | – |
| CCn1c(N2CCN(S(=O)(=O)c3ccc(F)cc3)CC2)nc2ccccc21 | inconclusive [inhibitor, single point] | – |
| COC(=O)CN1C(=O)C(O)(CC(=O)c2ccc(C)cc2)c2ccccc21 (centres undefined) | inactive | – |
| O=C(COc1ccccc1)Nc1cc(Cl)ccc1Cl | inconclusive [inhibitor, single point] | – |
| CCOC(=O)C1(C)Oc2ccccc2C(c2ccc(OC)cc2)=C1C(=O)OC (centres undefined) | inconclusive [inhibitor, single point] | – |
| O=C(N/N=C/c1coc2ccccc2c1=O)c1ccccc1Br | inactive | – |
| CNc1cc([N+](=O)[O-])ccc1N/C=C/C(=O)c1ccc2c(c1)OCO2 | inconclusive [inhibitor, partial curve] | – |
| Cc1ccc(S(=O)(=O)NCCC(=O)N2CCC(Cc3ccccc3)CC2)cc1 | active: 14.6 µM | – |
| COc1ccc(S(N)(=O)=O)cc1C(=O)N(C)CC(=O)Nc1ccc(N2CCOCC2)cc1 | inactive | – |
| O=C(Nc1cccc(Cl)c1)c1cncn1-c1ccc(F)cc1 | inactive | – |
| COc1ccc(CCn2c(=O)[nH]c3cc(C(=O)NCCCN4CCOCC4)ccc3c2=O)cc1OC | inconclusive [inhibitor, single point] | – |
| COc1ccc(/C=C2\SC(=O)N(CC(=O)Nc3ccc(F)cc3)C2=O)cc1O | inconclusive [inhibitor, single point] | – |
| CCOC(=O)C(c1ccccc1)C(Nc1ccc(Cl)c(Cl)c1)c1ccccn1 (centres undefined) | inconclusive [inhibitor, single point] | – |
| O=C(NCc1ccccc1)c1cncc(Br)c1 | inconclusive [inhibitor, partial curve] | – |
| CCc1nc(N2CCN(CC(=O)NCC3CCCO3)CC2)c(C#N)c2c1COC(C)(C)C2 (centres undefined) | inconclusive [inhibitor, single point] | – |

| SMILES | Potency | activity change, negative = growth inhibition |
| --- | --- | --- |
| CC(C)(C)C(=O)Nc1ccc(N2CCN(c3ccc(C(F)(F)F)cn3)CC2)nc1 | inconclusive [inhibitor, full curve] | – |
| Cc1cc(Cl)ccc1NC(=S)NC1CCCC1 | inconclusive [inhibitor, single point] | – |
| COc1cccc(/C=C2\SC(=S)N(CC(=O)N(C)C3CCS(=O)(=O)C3)C2=O)c1 (centres undefined) | inconclusive [inhibitor, single point] | – |
| COc1ccc([C@H]2CC(=O)C=C(c3cccc(Br)c3)C2)cc1 | inconclusive [inhibitor, single point] | – |
| O=C(c1ccc2c(=O)n(Cc3ccc4c(c3)OCO4)c(=S)[nH]c2c1)N1CCN(Cc2ccccc2)CC1 | inconclusive [inhibitor, single point] | – |
| COCCn1c(C(=O)N(C)C)cc2c1C[C@H]1CN(C(=O)c3ccccc3)[C@@](Cc3ccc(F)cc3)(C(=O)OC)[C@@H]21 | inconclusive [inhibitor, single point] | – |
| CC(=O)Nc1ccc(S(=O)(=O)NCC(=O)OCC(=O)N2CCCCCC2)cc1 | inactive | – |
| NC(=O)NC(=O)COC(=O)c1ccccc1Oc1ccccc1 | – | inconclusive: -30.1% [inhibitor] |
| COC(=O)c1nc2n(n1)C(c1cccc(Cl)c1)C(C(=O)Nc1ccccc1OC)=C(C)N2 (centres undefined) | inactive | – |
| O=C(Nc1ccncc1)c1ccc(Cl)c(S(=O)(=O)N2CCCC2)c1 | inconclusive [inhibitor, single point] | – |
| O=C(N/N=C/c1ccccc1F)c1cc2c(ccc3ccccc32)o1 | inconclusive [inhibitor, single point] | – |
| COc1ccc(-c2nc3sc(CCNC(=O)c4cc(OC)c(OC)c(OC)c4)c(C)n3n2)cc1 | active: 23.1 µM | – |
| Cn1c(=O)c2c(nc(OC3CCCCCC3)n2C)n(C)c1=O | inconclusive [inhibitor, single point] | – |
| O=C(COC(=O)/C=C/c1ccc(F)cc1)Nc1ccc(S(=O)(=O)N2CCOCC2)cc1 | inconclusive [inhibitor, single point] | – |
| C=C[C@@H]1c2cc(C)ccc2N(S(=O)(=O)c2ccc(C)cc2)[C@H](c2ccc(C(=O)OC)cc2)C1(C#N)C#N | inconclusive [inhibitor, partial curve] | – |
| O=C(CSC1=Nc2ccccc2C2=NC(CC(=O)NC3CCCCC3)C(=O)N12)Nc1ccc(F)cc1 (centres undefined) | inconclusive [inhibitor, single point] | – |
| Cc1nn(Cc2cccc(C(=O)N3N=C(C(F)F)CC3(O)C(F)F)c2)c(C)c1[N+](=O)[O-] (centres undefined) | inconclusive [inhibitor, single point] | – |
| CCN(c1cccc(C)c1)S(=O)(=O)c1nnc(NC(=O)C2CCCCC2)s1 | inconclusive [inhibitor, single point] | – |
| O=C(CN1CCN(S(=O)(=O)c2ccc(Cl)cc2)CC1)Nc1ccc2c(c1)OCCO2 | inconclusive [inhibitor, single point] | – |
| COc1ncccc1C(=O)N1CCCC(N2CCN(c3cccc(Cl)c3)CC2)C1 (centres undefined) | inconclusive [inhibitor, partial curve] | – |
| C#CCN(C[C@H]1[C@H](OC(=O)NCc2ccccc2F)[C@H](OC(=O)NCc2ccccc2F)C[C@@H](C(=O)OC)[C@H]1C(=O)OC)S(=O)(=O)c1ccc(C)cc1 | active: 4.61 µM | – |
| O=C(CSc1nc2ccccc2nc1Cc1ccc(Cl)cc1)N1CCc2ccccc21 | inactive | – |

| SMILES | Potency | activity change, negative = growth inhibition |
| --- | --- | --- |
| CCc1ccc(CNC(=O)CN2C(=O)c3cccnc3Oc3ccc(Cl)cc32)cc1 | inconclusive [inhibitor, single point] | – |
| Cc1c(C(=O)Nc2c3c(nn2C(C)(C)C)CS(=O)(=O)C3)cccc1[N+](=O)[O-] | inconclusive [inhibitor, single point] | – |
| CCOc1cc(CO)cc(Br)c1OCC(=O)Nc1ccccc1C | – | inconclusive: -31.6% [inhibitor] |
| Cc1cccc(OCCn2c(=O)n(C)c3ccccc32)c1 | inconclusive [inhibitor, full curve] | – |
| COc1cccc(C(=O)C2CCCN(Cc3cccc(-n4cccn4)c3)C2)c1 (centres undefined) | inconclusive [inhibitor, single point] | – |
| CCC(C)[C@H](NC(=O)[C@H](Cc1ccccc1)n1c(=O)[nH]c2ccccc2c1=O)C(=O)NCC1CCC(C(=O)O)CC1 (some centres undefined) | inactive | – |
| O=C(NCCc1c[nH]c2ccccc12)c1cc2sccc2n1Cc1ccccc1 | active: 23.1 µM | – |
| CCCN(CCC)C(=O)CC(c1ccccc1)c1ccc(C)cc1O (centres undefined) | inconclusive [inhibitor, single point] | – |
| CCCCNC(=O)C1C(c2ccccc2)=Nc2ccccc2N1C(=O)c1ccc2c(c1)OCO2 (centres undefined) | inconclusive [inhibitor, single point] | – |
| CC(C)NC(=O)C1(C)CCN1C(=O)c1cccn1C (centres undefined) | inactive | – |
| CC(C)(C)c1nc2cc(Cl)c([N+](=O)[O-])cc2o1 | inconclusive [inhibitor, single point] | – |
| Cc1nc(C(F)(F)F)ccc1C(=O)N1CCCCCC1(C)C(=O)NCC(C)C (centres undefined) | inactive | – |
| O=C(NCCCN1CCOCC1)c1ccc(S(=O)(=O)Nc2ccccc2)cc1 | inconclusive [inhibitor, single point] | – |
| Cc1cc(C)c2cc(C#N)c(NCCCNC(=O)c3ccncc3)nc2c1 | inconclusive [inhibitor, single point] | – |
| O=C(Nc1cccc(-c2cnc3ccccc3n2)c1)c1cccc(NC(=O)c2ccco2)c1 | active: 6.51 µM | – |
| Cc1ccc(CNC(=O)c2ccc(N3CCC4(CC3)CC(c3cccc(Br)c3)=NO4)c(N)c2)cc1 | active: 6.51 µM | – |
| CCOC(=O)c1cnn(-c2ccc(C)cc2)c1N | inactive | – |
| COc1cc(C(CC(=O)N2CCN(c3ccccc3)CC2)c2c(OC)cc(OC)c3ccc(=O)oc23)cc(OC)c1OC (centres undefined) | inconclusive [inhibitor, partial curve, poor fit] | – |
| CCC(C)NC(=O)c1cn(CC)c2cc(N3CCN(C(=O)c4ccco4)CC3)c(F)cc2c1=O (centres undefined) | active: 16.4 µM | – |
| Cc1[nH]n(-c2ccccc2)c(=O)c1C(C[N+](=O)[O-])c1ccc(F)cc1 (centres undefined) | active: 7.31 µM | – |
